# Experimental data from article PMC10668032.
# The other results are listed elsewhere or left out. At the low end of the ranking the order means little.
# Molecular target: SIX1 homeodomain (reference allele) (UniProt Q15475)
# Assay: universal protein binding microarray
# Conditions: Universal all-10-mer PBM (8x60K, AMADID 030236), 300 nM GST-tagged protein, Alexa Fluor 488 anti-GST; buffer, salt, pH and temperature not stated; high values mean tight binding; most listed sequences are background and not binding sites; double strand, one strand shown
row,Sequence,binding signal [E-score]
1,AGGCTGTG,-0.157
2,ACAAACCC,-0.0123
3,GTCGTATA,0.186
4,AACATTAA,-0.156
5,CCTACTCG,-0.0646
6,CAACCCGG,0.112
7,AGGCACGG,-0.183
8,ACGAAGTA,0.109
9,ACTTATCA,0.0176
10,CCGCGCCC,-0.00901
11,GTGACCAC,-0.0486
12,GTATCCAA,0.421
13,GCTGTCCA,-0.202
14,AGCCCGTA,-0.097
15,AAGAACAT,-0.163
16,CGGGTCTC,0.187
17,GGGATCCA,0.375
18,AATCACGA,-0.0602
19,AGTAAAGG,-0.197
20,CCATGATC,0.293
21,CATGGCAG,0.0147
22,AATTAGCG,-0.231
23,CCTCCATA,-0.00502
24,CATCGGCA,0.0581
25,TGTGCCAA,-0.0281

row,Sequence,binding signal [E-score]
1,CAGACACA,-0.0664
2,AGGCCTGG,-0.237
3,ATAGTTAG,-0.0308
4,ACTACAGG,0.0531
5,ACCAGTCG,0.0056
6,CGGACGGA,-0.153
7,GCTATGAA,-0.0104
8,CATATCAG,0.436
9,GGGCAGAA,0.00345
10,AAGTGAAC,-0.132
11,ATCCCCGC,0.326
12,AGTGTCTG,-0.00382
13,ACTGCAGT,-0.408
14,ACCTGCAT,-0.0571
15,AACATTTC,-0.362
16,AAGGAGGA,0.0368
17,GAGCGCTA,-0.0992
18,CCGCTACA,-0.0333
19,AATAGTTC,-0.336
20,GGTGTGTA,0.108
21,GACCGAAC,-0.142
22,GTTCGCCA,-0.204
23,ATCCCCGA,0.368
24,AGAGCGCG,-0.204
25,TCGATTCA,-0.0542

row,Sequence,binding signal [E-score]
1,AATTGATG,-0.137
2,ATTATTTC,-0.0207
3,CAGCGTTC,-0.276
4,ATACCCGC,0.379
5,CCCACCGG,0.0358
6,CGGGCTAA,-0.0753
7,CCTAGCTC,-0.0541
8,TACGGAAA,-0.214
9,CTCGATTC,-0.0382
10,ACTAAGCC,-0.107
11,CATTGTGC,-0.194
12,CTCAGCGA,0.139
13,ACTTGGCG,-0.242
14,ACACGGAC,0.0252
15,TCCCCCCA,-0.0273
16,ATGCGACC,0.135
17,GAGTCGAC,-0.00911
18,CCGATCCG,0.428
19,AAGGCCGT,-0.0984
20,TAAGGCTA,-0.0214
21,AACAACCA,-0.243
22,ATCGTCTC,0.304
23,AGAGAAAT,-0.125
24,AACAGCAG,-0.0969
25,CACCCACA,0.0515

row,Sequence,binding signal [E-score]
1,AGGGGAAT,0.0637
2,ACTGCTAT,0.177
3,ACTGCCGC,-0.182
4,CGACTGCG,-0.0688
5,ATCGAGCG,0.156
6,GGTACACC,0.298
7,AATGGTGG,-0.0872
8,CGAGGGTC,-0.276
9,ACGTGACA,-0.134
10,CTCATAAA,-0.0141
11,CGAAGCGC,-0.0455
12,ATCTTCAG,0.153
13,GAGACCTA,0.116
14,AGCTCTAG,-0.0365
15,ACCCGAAC,0.0616
16,AGGGCGAA,-0.272
17,CCTCTCGC,-0.0679
18,CAAATGAG,-0.0774
19,ATCTGGAC,0.208
20,ATATGTCA,0.166
21,AGGCCTGA,0.0224
22,AATTAGTA,-0.0701
23,AACAAGTA,-0.207
24,ATTGCAGC,-0.00129
25,CTGCACCC,2.5e-05

row,Sequence,binding signal [E-score]
1,ACTAAACG,0.0109
2,GCGTCCAC,-0.114
3,GTTTGCTA,-0.196
4,TCCCCTAA,0.263
5,CCGGCACA,-0.0294
6,ACCCCGCC,0.188
7,ACGAACAC,-0.0303
8,TAAAAGCA,-0.152
9,ACTCAAAA,-0.0927
10,GCTCGCTA,0.055
11,ACACTTTG,0.0262
12,ATATGGCC,0.197
13,CGGTAGGC,-0.156
14,AAGCTCTG,-0.228
15,AGTGCTAT,0.0179
16,CTCACGTC,-0.0519
17,GCTTACAC,0.0239
18,CACCTGGC,-0.0743
19,CCTTGGTC,-0.0581
20,GACACATC,-0.07
21,CACCTCCG,0.268
22,CAACCTAG,0.114
23,TCAGCGGA,0.0989
24,AAGCGATA,0.376
25,CTGAAAAC,-0.0358

row,Sequence,binding signal [E-score]
1,AAATGGGA,-0.0533
2,AAAGACTC,-0.287
3,ACTGAGAT,0.124
4,ATTCCATA,0.037
5,GCGCGGAC,-0.18
6,CCCATAAA,-0.14
7,ACAGCAAC,-0.213
8,CATTAAAA,-0.0887
9,CGGCGCAC,-0.148
10,GTAATCAA,-0.126
11,AGCTTGAC,-0.243
12,GACTTAAA,-0.235
13,CTATCAAC,0.29
14,CAAATGGG,-0.0851
15,ACCAGCAG,-0.116
16,CAGGGTGG,0.0899
17,AAATCCAC,-0.101
18,AAGACCTA,-0.173
19,CGGTGTAA,0.257
20,AACACCCA,0.13
21,CTCATAAG,0.126
22,GCGAGGAA,-0.146
23,TATCCATA,0.391
24,AATGCCGA,-0.0344
25,AGTGCGCG,-0.254

row,Sequence,binding signal [E-score]
1,TAGGGCGA,0.0366
2,GAAAGTTC,-0.368
3,ACCAATCT,0.103
4,TTGCTAAA,-0.233
5,CACTGGCC,-0.0766
6,CAATGGGA,-0.0446
7,CGGGATCA,0.417
8,GTAACATA,0.0437
9,ATGCCGAA,0.00536
10,CACTAGGG,0.0663
11,AACTTGTA,-0.206
12,GGCAATGA,-0.0784
13,AATATTCC,0.251
14,AAATCGCG,-0.139
15,ACCTCACT,0.0117
16,GCCGGGAC,-0.129
17,ACTACTCT,-0.0322
18,AAGACTAT,-0.0452
19,ACTGGTGG,-0.0712
20,CCGCACCG,-0.0552
21,CCACTCGC,0.00504
22,ATCGCGCC,0.158
23,AGTATTTA,-0.033
24,ACAACTAC,-0.211
25,CTATGCAG,0.0494

row,Sequence,binding signal [E-score]
1,CTGTCGGA,0.0389
2,GCTCTAAC,-0.0119
3,CCGGCAAA,-0.141
4,CCCTAAGA,0.0664
5,CGTTCTTC,-0.0968
6,TACTCCGA,0.177
7,ACGGGGTG,0.146
8,AGGGGAGG,0.126
9,ACGTAAGG,-0.138
10,ACAGGGAA,-0.158
11,GACCGGCA,-0.152
12,ATAATAAC,-0.00396
13,GAGACCCA,0.143
14,GTTCCACA,0.0269
15,GCTAGTGA,-0.0241
16,GTTTATAA,-0.0702
17,AGCCGCGA,0.11
18,CCCAAGAG,-0.0251
19,ACAAAACC,-0.0518
20,TAGCCTCA,-0.173
21,TAAGTTAA,-0.0399
22,CCTCATTA,-0.056
23,ATGAAGGA,0.0258
24,ACACCGTC,0.262
25,AGAGGCAG,-0.18

row,Sequence,binding signal [E-score]
1,GACTTGCA,-0.094
2,CCGATGCA,0.0271
3,GCAGACAA,-0.0799
4,CACTTTCG,-0.0427
5,AGTGACAG,-0.0951
6,AGCTACAT,0.0767
7,AGTGCAAT,-0.129
8,ACCGATGC,0.0323
9,AACCCTAT,0.185
10,AACATTGT,-0.0921
11,CTCAAAGC,-0.117
12,TCTCACAA,0.0917
13,TCTCGGCA,-0.105
14,AATTCAGA,-0.119
15,GACGAAAA,-0.302
16,GGCTGACA,0.0873
17,GGTCCCCA,-0.211
18,ATAGAAAC,-0.0559
19,GGGTAGAC,0.0718
20,GAATATTC,0.106
21,GACGGCTC,-0.0532
22,AAAAGAAG,-0.286
23,AGAATCTG,0.12
24,ACACCAAG,0.236
25,ATTCCTGA,0.0326

row,Sequence,binding signal [E-score]
1,CTACATCA,-0.116
2,CGAGCTCG,0.114
3,CTCCCGTC,0.0843
4,GTCAGAAA,-0.144
5,ACGCGCGG,-0.105
6,CTCCTGAC,0.0254
7,ACCAGGAA,-0.144
8,AATGTGAA,-0.141
9,AGAAGTTA,-0.205
10,GATGATGC,0.0873
11,CCCAAAAG,-0.185
12,ACAACCCT,-0.0766
13,ACCCGGCG,0.107
14,CGCCCAGC,-0.0229
15,CATTTAGC,-0.115
16,TGGAGACA,0.076
17,CAAACTCC,-0.193
18,GCTGCACA,-0.151
19,AGGTTCGA,-0.0179
20,ATTAACCA,-0.0164
21,GATTCCAA,0.0394
22,AAACCGCT,-0.0955
23,ATACGTAT,0.421
24,CCTAACAA,-0.137
25,CAGATTCA,0.0897

row,Sequence,binding signal [E-score]
1,AAGAGGGC,-0.0566
2,ATCTCCAT,0.238
3,CGTGCCTC,-0.121
4,TAAAATAA,-0.0717
5,GCGGACAC,0.15
6,GTTGCCTA,-0.15
7,AGTCTTCC,-0.254
8,CTAGAGGC,-0.123
9,GATATAGC,0.368
10,ACGGCCCC,-0.344
11,ATACGGGG,0.335
12,CGTACACC,0.205
13,CCCAGATA,0.302
14,GGCATGCC,0.0604
15,ATAACTAA,0.0576
16,GGCCAGAA,-0.125
17,AGGACCAG,-0.188
18,AATATGGC,0.097
19,GCAGTGCC,-0.155
20,CATGGATC,0.307
21,GCGATCAA,0.18
22,GCACGTTA,-0.0721
23,ACCTTCAT,-0.0214
24,AATGCGGG,0.0957
25,CGACCAGC,-0.165

row,Sequence,binding signal [E-score]
1,CTGTCACC,0.0245
2,AGGGTGCC,-0.0802
3,TCTGCTAA,-0.0693
4,CGCAGCAA,-0.169
5,ACCTACCT,-0.195
6,ACGGGCAA,0.0506
7,GCGTACCC,0.136
8,GGGAAATA,0.102
9,CTCAGGAC,0.0375
10,CGCCGGGA,0.0669
11,ATCGAAGC,0.0975
12,CCCTTAGA,0.0579
13,AAGTTGAT,0.122
14,GTACCTAC,-0.23
15,CAAATTAG,-0.227
16,CGATTACA,0.0821
17,CCCCCAGG,0.158
18,AATTCAGT,-0.11
19,CTAGGCTC,-0.0798
20,CGGCGAGC,-0.0282
21,CTAACGAA,-0.152
22,CTCAAACA,-0.128
23,AGGTGCCA,0.00385
24,GTACAGAA,-0.0664
25,CACTTCGC,-0.164

row,Sequence,binding signal [E-score]
1,CGTTCTGA,-0.2
2,AGGCGTGA,-0.031
3,AGTTCTAT,0.034
4,ACCTATGC,0.00953
5,GTACTGAA,-0.0539
6,ATTCAGAG,0.0153
7,AGGGTCTG,-0.0871
8,CGCGGAAA,-0.129
9,AGTTGCTA,-0.0653
10,GCCTTGAA,-0.222
11,TAGTTAGA,0.0126
12,CGGAACCA,-0.116
13,GTTAGGTA,0.15
14,GCGGGAAC,-0.173
15,AAGATCTC,0.198
16,CTATAATA,0.259
17,CCACCCGA,0.121
18,GGCTATTA,0.0818
19,AGCAGGCC,-0.264
20,GGAAGCCC,0.0155
21,GGCCGGGA,0.0104
22,AACTTCCG,-0.172
23,CCTCATCC,-0.0701
24,CCAATTTA,-0.0104
25,GCAGCCCA,-0.106

row,Sequence,binding signal [E-score]
1,CGCCGTAC,0.0141
2,ATTAGCAC,-0.11
3,CCCGAGAC,0.252
4,CCAAATGG,-0.0617
5,GCTTTCCC,-0.202
6,ACAGTCTA,-0.0471
7,CAAAATCG,-0.155
8,GGAGCACA,0.0657
9,ACGCTACC,-0.217
10,AAAGTTTC,-0.289
11,TCGACCCA,-0.0638
12,AGCTATTC,-0.0164
13,CGCCCGAC,0.0241
14,ACTCTACC,-0.0292
15,CATCCTCG,0.00693
16,AAGCGAAC,-0.242
17,ATACTCTG,0.354
18,AGAGAAGC,-0.278
19,AAGCAGTG,-0.113
